In one assay the test system is HSkMC. In words: cytotoxicity call (relative viability < 0.9). As to conditions: 10 µM.
The test system of another assay is HepG2. In words: cytotoxicity call (relative viability < 0.9). The note with it: 10 µM.
The test system of the next assay is S. aureus RN4220. In words: growth inhibition call (relative growth <= 0.2). The note with it: 50 µM.

Some of the results follow.

Regarding `NC(Cn1ccc(=O)c(O)c1)C(=O)O` (stereo unspecified), the cytotoxicity call in the assay with HSkMC is “inactive”. In addition, the cytotoxicity call with HepG2 is “active”. In the assay on S. aureus RN4220, the growth inhibition call is “inactive”.
For the compound `CCCCN(CCCC)CCCOC(=O)c1ccc(N)cc1.O=S(=O)(O)O`, the cytotoxicity call in the assay on HSkMC and in the assay on HepG2 was “inactive” throughout. In the assay on S. aureus RN4220, the growth inhibition call was “inactive”.
For the compound `C[C@@H]1CCCCO[C@H](CN(C)C(=O)Nc2ccc(C(F)(F)F)cc2)[C@H](C)CN([C@@H](C)CO)C(=O)c2cc(NC(=O)c3ccccc3)ccc2O1`, the cytotoxicity call in the assay with HSkMC and in the assay on HepG2 was “inactive” throughout. For the same compound, the growth inhibition call in the assay with S. aureus RN4220 was “inactive”.
On to `Cc1cncc2cccc(S(=O)(=O)N3CC[C@H](N(C/C=C/c4ccc(Br)cc4)C/C=C/c4ccc(Br)cc4)C3)c12`, for which the cytotoxicity call with HSkMC and in the assay on HepG2 was “inactive” each time. The growth inhibition call with S. aureus RN4220 was “inactive”.
On to `Cc1ccc(S(=O)(=O)N(C)C[C@@H]2Oc3cc(C#Cc4ccncc4)ccc3S(=O)(=O)N([C@@H](C)CO)C[C@@H]2C)cc1`, for which, in the assay on HSkMC, the cytotoxicity call was “inactive”. For the same compound, the cytotoxicity call in the assay with HepG2 was “active”. Besides, the growth inhibition call in the assay on S. aureus RN4220 is “inactive”.
In the case of `C[C@@H]1CN([C@@H](C)CO)C(=O)c2cc(C#Cc3ccccc3)cnc2O[C@@H]1CN(C)C(=O)CCN1CCCCC1`, the cytotoxicity call in the assay with HSkMC and with HepG2 was “inactive” in each case. Further, in the assay on S. aureus RN4220, the growth inhibition call was “inactive”.
`C[C@@H]1CN([C@@H](C)CO)C(=O)Cc2cc(NS(C)(=O)=O)ccc2O[C@@H]1CN(C)Cc1ccc2c(c1)OCO2`: the cytotoxicity call in the assay with HSkMC and with HepG2 was “inactive” each time. The growth inhibition call with S. aureus RN4220 is “inactive”.
On to `Cc1ccc(S(=O)(=O)N(C)C[C@H]2OCCCC[C@@H](C)Oc3ccc(NC(=O)Nc4c(C)noc4C)cc3C(=O)N([C@H](C)CO)C[C@@H]2C)cc1`, for which the cytotoxicity call in the assay with HSkMC and in the assay on HepG2 was “inactive” throughout. The growth inhibition call in the assay with S. aureus RN4220 was “inactive”.
`C[C@H](CO)N1C[C@H](C)[C@@H](CN(C)Cc2ccc(Oc3ccccc3)cc2)Oc2c(NC(=O)Cc3ccccc3)cccc2C1=O`: the cytotoxicity call in the assay on HSkMC and with HepG2 was “inactive” throughout. Also, the growth inhibition call with S. aureus RN4220 is “inactive”.
With `CCC(C)C1OC2(C=CC1C)CC1CC(CC=C(C)C(OC3CC(OC)C(OC4CC(OC)C(NC(C)=O)C(C)O4)C(C)O3)C(C)C=CC=C3COC4C(O)C(C)=CC(C(=O)O1)C34O)O2` (stereo unspecified), the cytotoxicity call in the assay on HSkMC and with HepG2 was “inactive” in each case. Moreover, the growth inhibition call in the assay with S. aureus RN4220 is “inactive”.
For the compound `COc1ccc(S(=O)(=O)N(C)C[C@@H]2Oc3ccc(NC(=O)Nc4ccc(Cl)c(Cl)c4)cc3CC(=O)N([C@@H](C)CO)C[C@@H]2C)cc1Cl`, the cytotoxicity call in the assay with HSkMC and in the assay with HepG2 was “active” throughout. Moreover, in the assay on S. aureus RN4220, the growth inhibition call is “inactive”.
As to `C[C@@H]1CN([C@H](C)CO)C(=O)c2cc(NS(=O)(=O)c3ccc(Cl)cc3)ccc2O[C@@H](C)CCCCO[C@H]1CN(C)S(=O)(=O)c1cccs1`, the cytotoxicity call with HSkMC and in the assay with HepG2 was “inactive” throughout. Also, the growth inhibition call in the assay on S. aureus RN4220 was “inactive”.
Regarding `C[C@@H]1CN([C@H](C)CO)C(=O)c2cc(NC(=O)Cc3ccccc3)ccc2O[C@@H](C)CCCCO[C@H]1CN(C)Cc1ccc2c(c1)OCO2`, the cytotoxicity call with HSkMC and with HepG2 was “inactive” in each case. Moreover, the growth inhibition call in the assay on S. aureus RN4220 was “inactive”.
For the compound `CN(C)CCCNC(=O)C[C@@H]1CC[C@H]2[C@@H](COC[C@@H](O)CN2S(=O)(=O)c2ccc(Cl)cc2)O1`, the cytotoxicity call in the assay on HSkMC and in the assay with HepG2 was “inactive” throughout. Besides, the growth inhibition call in the assay on S. aureus RN4220 is “inactive”.
Consider `C[C@H](CO)N1C[C@H](C)[C@@H](CN(C)C(=O)Nc2ccc(C(F)(F)F)cc2)Oc2ccc(NC(=O)Nc3ccc(C(F)(F)F)cc3)cc2CC1=O`, for which the cytotoxicity call in the assay with HSkMC was “inactive”. In the assay with HepG2, the cytotoxicity call was “active”. Also, the growth inhibition call in the assay with S. aureus RN4220 is “inactive”.
`CN(C)C(=O)C[C@H]1C=C[C@H](NC(=O)C2CCOCC2)[C@H](CO)O1`: the cytotoxicity call with HSkMC and with HepG2 was “inactive” each time. In the assay with S. aureus RN4220, the growth inhibition call was “inactive”.
Take `COC1=CC(=O)CC(C)C12Oc1c(Cl)c(OC)cc(OC)c1C2=O` (stereo unspecified): in the assay with HSkMC, the cytotoxicity call is “inactive”. Also, the cytotoxicity call in the assay with HepG2 was “active”. In addition, the growth inhibition call in the assay with S. aureus RN4220 is “inactive”.
As to `C[C@@H]1CN([C@H](C)CO)C(=O)c2cc(NS(=O)(=O)c3ccc(Cl)cc3)ccc2O[C@@H]1CN(C)C(=O)Nc1cccc2ccccc12`, the cytotoxicity call in the assay with HSkMC and in the assay on HepG2 was “inactive” in each case. Further, the growth inhibition call in the assay with S. aureus RN4220 was “inactive”.
Regarding `COc1ccccc1-c1ccc2c(c1)O[C@@H](CN(C)S(=O)(=O)c1ccccc1)[C@@H](C)CN([C@H](C)CO)S2(=O)=O`, the cytotoxicity call in the assay with HSkMC and with HepG2 was “inactive” throughout. For the same compound, in the assay on S. aureus RN4220, the growth inhibition call was “inactive”.
With `C[C@@H]1CN([C@H](C)CO)C(=O)Cc2cc(NC(=O)C3CC3)ccc2O[C@@H]1CN(C)Cc1ccc2c(c1)OCO2`, the cytotoxicity call with HSkMC and in the assay with HepG2 was “inactive” in each case. In the assay on S. aureus RN4220, the growth inhibition call was “inactive”.
Regarding `CN(C)Cc1cn(CC[C@@H]2CC[C@H](N)[C@@H](CO)O2)nn1`, the cytotoxicity call in the assay with HSkMC and in the assay with HepG2 was “inactive” throughout. In the assay on S. aureus RN4220, the growth inhibition call was “inactive”.
As for `C[C@@H]1CN([C@H](C)CO)C(=O)c2cccc(NS(=O)(=O)c3ccc(Cl)cc3)c2O[C@H]1CN(C)C(=O)Nc1ccc(C(F)(F)F)cc1`, the cytotoxicity call with HSkMC and with HepG2 was “inactive” in each case. In addition, the growth inhibition call in the assay with S. aureus RN4220 is “inactive”.
In the case of `C=CC[C@@H](CC(=O)N[C@@H](CO)Cc1ccccc1)C(=O)NC[C@@H](OC(=O)[C@@H](CC=C)Cc1ccc(F)cc1)c1ccccc1`, the cytotoxicity call with HSkMC and in the assay with HepG2 was “inactive” throughout. Further, the growth inhibition call with S. aureus RN4220 was “inactive”.
For the compound `O=C(CN1CCOCC1)N[C@H]1CC[C@@H](CCNS(=O)(=O)c2ccccc2F)O[C@H]1CO`, the cytotoxicity call in the assay with HSkMC and in the assay on HepG2 was “inactive” in each case. Further, the growth inhibition call with S. aureus RN4220 is “inactive”.
As to `C[C@@H]1CCCCO[C@H](CN(C)C(=O)Nc2cccc3ccccc23)[C@H](C)CN([C@@H](C)CO)C(=O)c2cc(NC(=O)NC3CCCCC3)ccc2O1`, the cytotoxicity call in the assay on HSkMC (human skeletal muscle cells) is “inactive”. For the same compound, in the assay on HepG2, the cytotoxicity call is “active”. The growth inhibition call with S. aureus RN4220 was “inactive”.
Regarding `C[C@@H]1CN([C@H](C)CO)S(=O)(=O)c2ccc(C3=CCCCC3)cc2O[C@H]1CN(C)S(=O)(=O)c1cn(C)cn1`, the cytotoxicity call with HSkMC and with HepG2 was “inactive” throughout. In the assay on S. aureus RN4220, the growth inhibition call was “inactive”.
As to `COc1ccc(NC(=O)Nc2ccc3c(c2)C(=O)N([C@H](C)CO)C[C@H](C)[C@H](CN(C)C(=O)Nc2ccc(F)cc2)OCCCC[C@H](C)O3)cc1`, the cytotoxicity call in the assay with HSkMC and with HepG2 was “inactive” each time. In the assay with S. aureus RN4220, the growth inhibition call was “inactive”.
